# This is one part of the list. The list includes weakly bound sequences.
# Target: MaxL homodimer (UniProt P61244)
# Assay: universal protein-binding microarray (PBM)
# Details: PBS-based mixture, 10 nM His-tagged protein dimer, 2% milk, 200 ng/uL BSA, 50 ng/uL salmon testes DNA, 0.02% TX-100; detection with Alexa 488 anti-His …; high values mean tight binding; most listed sequences are background and not binding sites; double strand, one strand shown
# Sequence of UniProt P61244 (P61244 whole entry): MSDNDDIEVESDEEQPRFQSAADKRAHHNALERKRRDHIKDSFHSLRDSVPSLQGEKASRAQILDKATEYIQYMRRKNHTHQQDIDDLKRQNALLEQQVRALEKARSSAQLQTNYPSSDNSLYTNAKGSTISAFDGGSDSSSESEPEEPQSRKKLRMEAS
row,Sequence,binding signal (normalized occupancy)
1,ATACGATA,0.0815
2,CCTTAGAA,0.072
3,ACTAGAAG,0.0716
4,CACGTCGA,0.0845
5,CATTGGAC,0.0728
6,ACCCCCGG,0.0755
7,ATAGACGA,0.0769
8,CGTAACTA,0.0731
9,ATCGTTGA,0.0726
10,ATTACTTA,0.0809
11,CCTTAGCC,0.0725
12,AATAAGTC,0.0763
13,CTGCTTCC,0.0756
14,GAACATAA,0.0784
15,AGATGCAG,0.0757
16,ACCTGGCC,0.0741
17,GCTTAAAA,0.0678
18,AAAAAGCC,0.0676
19,AATGCCAG,0.0707
20,CGACGTAC,0.0724
21,CCATCGAG,0.0792
22,AGGCGTCA,0.0742

row,Sequence,binding signal (normalized occupancy)
1,CCGGACAG,0.0651
2,ACTGCGCC,0.068
3,CAAGGGTG,0.0782
4,CCCAGCCA,0.0739
5,AGGGTCCG,0.0755
6,CCTAGCGC,0.0666
7,ACGTCTCG,0.0779
8,CTCACCAG,0.0787
9,CCAACAGG,0.0721
10,CTATTATC,0.0781
11,CAAAACTG,0.0725
12,ACTGCATG,0.0859
13,AGCGGCCC,0.0653
14,CCCGAAGA,0.0718
15,CTGTCCGC,0.0678
16,AGCCAAAG,0.0651
17,GTTAACAA,0.0757
18,CTCTGCAC,0.0765
19,ATCGTTTC,0.0713
20,CCAAGCAG,0.0713
21,AAATAGAA,0.0773
22,TGCCACAA,0.0763

row,Sequence,binding signal (normalized occupancy)
1,CCGGTCGC,0.0674
2,TAAGGTAA,0.0774
3,CCGTCGCG,0.0659
4,CAAGGGCA,0.0702
5,ATAGAGAA,0.0756
6,AATTATCT,0.0784
7,TATAAGCA,0.082
8,GTGAGTTA,0.0792
9,CGGGGCTC,0.0728
10,ATAGAGTA,0.0751
11,AGTGAAAT,0.0717
12,TGACTCAA,0.0763
13,CTTAAAAG,0.0711
14,AAAATGGG,0.0708
15,ATGCAACG,0.0795
16,GCCCTTAA,0.0705
17,ATGACTGG,0.0768
18,GTGTGAAC,0.0828
19,GGCAGTTA,0.0763
20,ACGGAGTG,0.0717
21,CATGTAGA,0.0902
22,ACAGACGC,0.0718

row,Sequence,binding signal (normalized occupancy)
1,CCCTACGC,0.0715
2,AATAATAT,0.0855
3,GGTCAGGA,0.0732
4,ACGTCGCC,0.0811
5,CATGGCGC,0.0766
6,GAGGAGAA,0.0783
7,GGCTCCCC,0.0676
8,GCATCTTA,0.0771
9,AACGCTAG,0.0726
10,ATCGGCAG,0.0718
11,CATACGCC,0.081
12,TCCCGCGA,0.0717
13,CATGAATA,0.0928
14,GGATCTAA,0.0779
15,GAAAGCTA,0.0705
16,GAAAGAGC,0.0721
17,CCATAAAA,0.0859
18,GCGAGAAA,0.0748
19,CTTCAGCC,0.0718
20,ACAGGGGC,0.0765
